We go through 112 variants from the RNAGym collection of RNA variant scans (doi:10.7554/elife.90254).

The chains are these.
B1: LINE1-mini (parent)
chain: GGCAGAGCUCAACACAGCGUGGCAAAGUGGCUGUGGCUAGACUGCC

The source gives no read counts; variants with many changes may rest on few reads.

In the data set the parent is B1. Nature of the data set: self-cleavage, relative activity (ratio to wild type); higher = more cleavage; in vitro, sequencing; the parent is a self-cleaving ribozyme.
For GGCAGAGAUCAACACAUCGUGGCAGAGUGGCUGUGGUUAGACUGCC, the self-cleavage was found to be 0.05. In the case of GGCAGAGAUCAACACAGCGUUGCAAAUUGGUUGGGGCUAGGCUGCC it was 0.11; in that of GGCAGAGAUCAACACAGCGUGGAAAAGUGGCUGUGGCUAUACUGCA, 0.15. In the case of GGCAGAGAUCAACACAGCAUGGCCAAGUGGCUGCGGCUAGACUGCC it was 0.26; in that of GGCAGAGAUCAACACAGCGUGGCAAAGUGUCUGUGGCUACACGGCC, 0.23; in that of GGCAGAGAUCAACACAUCGUGGCAAAGUGGCUGUGGCUAGACUCCC, 0.11. In the case of GGCAGAGAUCAACACAGCGUGGCAAAGUGGAUGUGGCAAGACUUCC it was 0.14; in that of GGCAGAGAUCAACACAGCGUGGCAAAGUGACUGUGGCUAGUCUGCC, 0.26. Take GGCAGAGAUCAACACAGCGUGGAAAAGUGGCUGUGGCUAGAUUGCC: the self-cleavage was determined as 0.12. In the case of GGCAGAGAUCAACACAGCGUGGCAAAGUGAAUGUCGCUAGACUGAC it was 0.06; in that of GGCAGAGAUCAACACAGCGUGGCAAAGUUACUGUGGCUAGACUGCC, 1.47; in that of GGCAGAGAUCAACACAGCCUGGCAAAUUGGCUGUGACUAGACUGCC, 0.14. On to GGCAGAGAUCAACACAGCCUGGCAAAGUGGCUGUAGCUAGACUACC, for which the self-cleavage came out at 0.08. To GGCAGAGAUCAACACAGCGUUGCAAAUUGGCUGUGGCAAAACUGCC belongs 0.11; to GGCAGAGAUCAACACAACGUGGCAAAGUGGUUGUGGCUUGACUACA, 0.11; to GGCAGAGAUCAACACAGCGUGACCAAGUGGCUGUGUCUAUCCUGCC, 0.02.

Regarding GGCAGAGAUCAACACAGCGUGGCAAAGUGGCUGUGGCUAGACUGUA, the self-cleavage worked out at 0.52. In the case of GGCAGAGAUCAACACAGCGUUGCAAAGUAGCUGUGGCUAGACUGCA it was 0.11. To GGCAGAGAUCAACACAGCUUGGCAAAGUGGUUGUGAUUAGACUGCC belongs 0.08. To GGCAGAGAUCAACACAGCAUGGCAAAGUGGCUGUGGCUGGACUGCC belongs 0.05. Regarding GGCAGAGAUCAACACAGCCUGGCAAAUUGGCUGUGGCUAGCCUGCC, the self-cleavage is 0.07.

With GGCAGAGAUCAACACAGCUUGGAAAAGUGGCUGUGGCUAGACUGCA, the self-cleavage worked out at 0.08.

Take GGCAGAGAUCAACACAGCGUGGCAAAGUGGAUGUCGAAAGACUACC: the self-cleavage amounted to 0.03.

As to GGCAGAGAUCAACACACCGUCGCAAAGUGGCUGUUGCUAGACUGCC, the self-cleavage is 0.05. As for GGCAGAGAUCAACACAGCGUGGCAAACGAGCUGUGCCUAGACUGCU, the self-cleavage is 0.23.

Regarding GGCAGAGAUCAACACAGCGUGGCAAAGUGGCUAUGGCUAGACUGCA, the self-cleavage is 0.22. In the case of GGCAGAGAUCAACACAGCGUGGCAAAGUGGAUGUGGAUAGACUGCC it was 0.1. To GGCAGAGAUCAACACAGCGUGGCAAACUGGCUGUGACUAGACUGCC belongs 0.12.

Regarding GGCAGAGAUCAACACAUCGUUGCAAAGUGGGUGUGGCUAGACUGCC, the self-cleavage came to 0.06. For GGCAGAGAUCAACACAGCCUGGCAAAGUGGCUGUGACUAGACUGCC, the self-cleavage worked out at 0.11.

For the variant GGCAGAGAUCAACACAGCGUGUCAAAGUGGCUGUGGCAAGACUGCU, the self-cleavage came out at 0.11. To GGCAGAGAUCAACACAGCGUGGCAAAGUGCCUGUGGCUAGACUGAC belongs 0.26. To GGCAGAGAUCAACACAGCGUGACAAAGUGGCCGUGGCUAGCCUGAC belongs 0.02; to GGCAGAGAUCAACACAGCUUGGCAAAGUGGCUCUGGCUAGAGUGCC, 0.23; to GGCAGAGAUCAACACAGCGUGGCAAAGUGAUUGUGGCUAGACUGCC, 0.18. In the case of GGCAGAGAUCAACACAUCGUGGCAAAGUGGCUGGGGCUAGACUGCC it was 0.17; in that of GGCAGAGAUCAACACAGCAUGGCAAAGUGGCUGUGGCUACACUGCC, 0.31. Take GGCAGAGAUCAACACAGCGUGGCAAAGUGUCUGUGGCUAGACAGCC: the self-cleavage is 0.15.

GGCAGAGAUCAACACAGCGUGGCAAAGUGGGUGGGGCUAGACUGCC: the self-cleavage stood at 0.33.

For the variant GGCAGAGAUCAACACAGCUUGGCCAAGUGGCUGUUGCUAGACUGCU, the self-cleavage is 0.05.

GGCAGAGAUCAACACAGCCUGGCAAUGUGGUUGUGGCUAGACUCCC: the self-cleavage is 0.03.

Consider GGCAGAGAUCAACACAGCAUGGCAAAGUGGCUGUGUCUAGACUGCC, for which the self-cleavage was 0.57. In the case of GGCAGAGAUCAACACAUCGUGGCAAAGUGGCUUUGGCUAGACUGCC it was 0.12. In the case of GGCAGAGAUCAACACAGCGUGGCAAAGUGGCUGUGGCUAGAGUGAC it was 0.06; in that of GGCAGAGAUCAACACAGCGUGGCAAAGUCGCUGUGGCUAGACUACC, 0.

With GGCAGAGAUCAACACAGCGUGGCAAAGUGUCUGUGGCUAGACUACC, the self-cleavage was 0.06.

For the variant GGCAGAGAUCAACACAGCGUGACAAAGCGGCUGUGGCUAGACUGCC, the self-cleavage worked out at 0.08. In the case of GGCAGAGAUCAACACAGCCUGGCAAAGUGGCUGUGGAUAAACUGCU it was 0.01; in that of GGCAGAGAUCAACACAGCGUGGCAAAGUGCCGGUAGCUAGACUGCC, 0.04; in that of GGCAGAGAUCAACACAGCGUGGGAAAGUCGCGGUGGCUAGACUGCC, 0.05.

With GGCAGAGAUCAACACAGCGUGGCAAAGUGUUUGUGGCUAGUCUGAC, the self-cleavage stood at 0.72. In the case of GGCAGAGAUCAACACAGCGUGGCAAAGUAGCUGUGGCUAUACUGCU it was 0.11; in that of GGCAGAGAUCAACACAACGUGGCAAAGUGGCUAUGGCUAGACUGCC, 0.21.

With GGCAGAGAUCAACACAGCGUGGCAAAGUCGCUGUGGCUGGACUGCC, the self-cleavage came to 0.02. In the case of GGCAGAGAUCAACACAGCGUGCCAAAGUGCCUGUGGCUAGACUGCC it was 0.21; in that of GGCAGAGAUCAACACAACUUGGCAAAGUGGCUGUGGCUAGGCGGCC, 0.05. To GGCAGAGAUCAACACAGCGUGUCAAAUUGGCUGUGGCUAGACUGCC belongs 0.23; to GGCAGAGAUCAACACAGCGUGGAAAAUUGGCUGUGGCUGGACAGCC, 0.06; to GGCAGAGAUCAACACAGCCUGUCAAAGUGGGUGUGGCUAGACUGCC, 0.28. With GGCAGAGAUCAACACAGCGUGGGAAAGUGGCUGUUGCUAGACUGCC, the self-cleavage was found to be 0.2.

As to GGCAGAGAUCAACACAACGUGGCAAAGUGGCUGUGGCUAAACUGCU, the self-cleavage is 0.1. To GGCAGAGAUCAACACAGCGUGGCAAAGUGGAUGUGGCUAAACUGCC belongs 0.52; to GGCAGAGAUCAACACAGCGUGGCAAAGUGGUUGUGGCUAUACUGCC, 0.09; to GGCAGAGAUCAACACAGCCUAGCAAAGUGGCUGUGGCUAGACUGCC, 0.06. For the variant GGCAGAGAUCAACACAGCGUGCCAAAGUGGCUGUGGCUAGAGUGCC, the self-cleavage worked out at 0.06. In the case of GGCAGAGAUCAACACAGCGUGGCAAAUUGGCUGUGGCUAGAAUGCC, the self-cleavage amounted to 0.16. To GGCAGAGAUCAACACAGCGUGGCAAAAUGCCUGUGGCUAGACUGCC belongs 0.37; to GGCAGAGAUCAACACAGCCAGGAGAAGUGGUUGUGGCUAGACUGCC, 0.01. For the variant GGCAGAGAUCAACACAGCGUGUCAAAGUGGCUGUUGCUAGACUGCC, the self-cleavage was 0.4. To GGCAGAGAUCAACACAGCGUGGCAAAGUGACUGUGGCUAUAGUGCC belongs 0.2; to GGCAGAGAUCAACACAUCGUGGAAAAAUGGCUGUGGCUAGACUGCC, 0.35. In the case of GGCAGAGAUCAACACAGCGUGGCAAAAUGGCUGUGGAUAGACUGCC it was 0.08; in that of GGCAGAGAUCAACACAGCGUGGCAAAGUGACUUUGGCUAGACUGCC, 0.32.

For GGCAGAGAUCAACACAGCAUGGCAGAGUGGCUGUGGCUAGACUGCC, the self-cleavage is 0.1. To GGCAGAGAUCAACACAACGUGGCAAAGUGGCUGUGGCGAGACUGCC belongs 0.09; to GGCAGAGAUCAACACAGCGUGGCAAAGUGACAGUGGCUAGACUGCC, 0.04. To GGCAGAGAUCAACACAGCAUGGCAACGUGUCUGUGGCUAGACUGCC belongs 0.1; to GGCAGAGAUCAACACAACGUGGAAAUGUGCCUAUGGCUAGGCUGCC, 0.07; to GGCAGAGAUCAACACAGCGUGAUAAAGUGGCUGUGGCUAGACUGCC, 0.7. In the case of GGCAGAGAUCAACACAACAUGGCAAAGUGGCUGUGGCUAGACAGCC it was 0.28; in that of GGCAGAGAUCAACACAGCGUGGCAAACUGGCUGUGGCUAGACUGCA, 0.08; in that of GGCAGAGAUCAACACAGCAUGCCAAAGUGGCUCUGGCUACACUGCG, 0.04.

For the variant GGCAGAGAUCAACACAGCGUGGGAAAGUAGCGGUGGCUAGACUGCC, the self-cleavage stood at 0.08. Consider GGCAGAGAUCAACACAGCCUGGCACAGUGGCUGUGGCUAGACUGCC, for which the self-cleavage turned out to be 0.09.

For GGCAGAGAUCAACACAGCGUGGCAAAUUGGCUGUGGCCAGAUGGCC, the self-cleavage was found to be 0.06. To GGCAGAGAUCAACACAGCGUGGGAAAGUGGCUGUGGCUAGACUGGC belongs 0.05. For GGCAGAGAUCAACACACCGUGGCAAAUUGGCUCUGGCUAGGAUGCC, the self-cleavage is 0.03. In the case of GGCAGAGAUCAACACAGCUUGGCAAAGUGGCUGUGGCUAGACUGCU it was 0.03; in that of GGCAGAGAUCAACACAGCGUGGAAAAGUGGCCGUGGCUAGACUGCC, 0.08; in that of GGCAGAGAUCAACACAAAGUGGCAAAGUGGCUGUGGCUAGACUGCG, 0.31. With GGCAGAGAUCAACACAGCGUGGCAAAGUAACUGUGGCUAGACUGCC, the self-cleavage was found to be 0.14.

Consider GGCAGAGAUCAACACAGCGUGACAAAGUGACUGUGGCUAGACUGCC, for which the self-cleavage was found to be 0.05.

As for GGCAGAGAUCAACACAGCGUGGCAAAGUAGCUGUGGCUAGACUGUC, the self-cleavage was determined as 0.24.

Take GGCAGAGAUCAACACAGCGUGGCAAAGUGGAUGUGGCCAGACUGCC: the self-cleavage was 0.19. In the case of GGCAGAGAUCAACACAGCGUGGCAAAGUGGUUGUGGCUAGACUGUC it was 0.57; in that of GGCAGAGAUCAACACAGCUUGGCAAAGUGGCUAUGGCUAGACUGCC, 0.37. To GGCAGAGAUCAACACAACGUGGCAAAGUGGCUGUGGGUAGACUGCC belongs 0.07; to GGCAGAGAUCAACACAGCGUGGCAAAAUGGCUGUGGUUAGACUUCC, 0.02; to GGCAGAGAUCAACACAGCUUGGGACAGUGGCUGUGGCUAGACUGCC, 0.08.

With GGCAGAGAUCAACACAGCGUGGCAAAGUGUCUGAGGUUAGACUGCC, the self-cleavage came to 0.15. To GGCAGAGAUCAACACAGCGUGGCAAAUUGGGUGUGGCUAUACUCCC belongs 0.01; to GGCAGAGAUCAACACAGCGUUGCAAACUUGCUGUGGCUAGACUGCC, 0.09; to GGCAGAGAUCAACACAUCGUGGCAAAGUGGCUGUGGCUAGAGUGCC, 0.2.

Take GGCAGAGAUCAACACAGCGUGGGAAAGUGGCUGUGGUUAGACUGCA: the self-cleavage came to 0.24. To GGCAGAGAUCAACACAGCGUAACCAAGCGGCUUUGGCUAGACUGCC belongs 0.58; to GGCAGAGAUCAACACAGCGUGUCAAAGUGGAUGUCGCUAGACUGCC, 0.06.

GGCAGAGAUCAACACAGCGUGGCAAAGUUGCUGUCGCUAGACUGCC: the self-cleavage is 0.11. In the case of GGCAGAGAUCAACACAGCUUGGGAAAGUGGCUGUGGCUAGACUGCC it was 0.05. In the case of GGCAGAGAUCAACACAGCGUGGCAAAGUGGGUGUGGCUAGACUGCU it was 0.11; in that of GGCAGAGAUCAACACAGCGUGGCAAAGUGGGUGUGGCUAGACUGCA, 0.13; in that of GGCAGAGAUCAACACAGCGUGGCAAAGUCGCUGUGGCUAUACUGCC, 0.09.

For the variant GGCAGAGAUCAACACAGCGUGGCAAAUUAGCUGUGGUUAAACUGCC, the self-cleavage turned out to be 0.16.
